# The list shows a part of the results. Viral Rep nickase domains cut single-stranded DNA in vitro for 1 h at 37 °C with 3 µM enzyme; only the middle of the 90-letter strands is printed. A value is the log2 ratio of uncut reads to the pool without enzyme; uncut sequences lie near 0, cut ones below; no hit call is given. Shares of all reads are compared; where an enzyme cuts many sequences, the uncut ones exceed 0.
# System: T1, Rep nickase domain of porcine circovirus 2
# T1 sequence (residues 2-116 of Rep, tag left off): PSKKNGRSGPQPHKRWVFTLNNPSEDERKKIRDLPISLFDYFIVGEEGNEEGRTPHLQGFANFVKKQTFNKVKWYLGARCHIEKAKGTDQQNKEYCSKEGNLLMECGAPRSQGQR
# Test: uncleaved DNA left, log2 of reads against the no-enzyme library (log2 ratio); higher = less cleavage (more negative = more Rep cleavage of the k-mer); sequences stand for … in CTCGTCCG…ACCGGAGA
# Protocol: (§1)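 A pool of 90-nt single-stranded DNAs with seven random bases just before the constant AC of the nick site (name = the seven bases) was cut by 3 µM recombinant His6-SUMO-tagged Rep nickase domain (300 nM DNA, 50 mM HEPES pH 8.0, 50 mM NaCl, 1 mM MnCl2, 1 h, 37 °C, three replicates). Uncut DNA was amplified and sequenced.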
row,Sequence,uncleaved DNA left (log2)
1,GTATGAC,0.216
2,AACACGA,0.0767
3,TGAACGT,0.214
4,CGACGTT,0.0418
5,TCTACGG,0.165
6,CCCTGCT,-2.23
7,GAACCCT,-0.388
8,ACCGTAG,0.226
9,ACCGGTG,0.145
10,CATAATT,-3.57
11,CGGAGAT,-0.0159
12,ACTTCGG,0.168
13,GAAGGAG,0.177
14,AGGGCTT,0.0625
15,ACACGCT,0.0627
16,CTAAAGC,0.362
17,TCTTTAT,-1.6
18,TAAAGGC,0.114
19,TCACGGA,0.0978
20,ACGCTCA,0.0083

row,Sequence,uncleaved DNA left (log2)
1,GAATACT,-3.26
2,AGTTGCT,-3.17
3,TGACGAT,-0.554
4,TCTGATA,-0.135
5,GCACTAG,-0.0135
6,TACCGGG,0.0982
7,ATCCTGC,0.0987
8,ACTCTAC,0.0159
9,AACAAGT,-1.17
10,TTTATTT,-1.18
11,GTATGCA,0.0179
12,TCCACGT,0.0796
13,GCTTGTG,0.0628
14,CCTCTGG,0.117
15,CATTGGG,0.08
16,AGCTCAC,-0.261
17,CACAAAA,0.0385
18,ACATCAC,0.0456
19,GCTGATG,0.142
20,TTCCAAG,0.0603

# System: T2, Rep nickase domain of tomato golden mosaic virus
# T2 sequence (residues 1-124 of Rep, tag left off): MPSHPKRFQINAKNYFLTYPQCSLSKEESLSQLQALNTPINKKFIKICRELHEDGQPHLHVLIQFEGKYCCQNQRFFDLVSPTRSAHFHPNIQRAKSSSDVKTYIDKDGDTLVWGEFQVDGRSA
# Test: as above
# Protocol: as §1
row,Sequence,uncleaved DNA left (log2)
1,GTATGAC,0.085
2,AACACGA,-0.0421
3,TGAACGT,-0.00978
4,CGACGTT,-0.0323
5,TCTACGG,0.0307
6,CCCTGCT,0.0125
7,GAACCCT,0.0425
8,ACCGTAG,0.0164
9,ACCGGTG,0.0813
10,CATAATT,-0.1
11,CGGAGAT,-0.000599
12,ACTTCGG,0.126
13,GAAGGAG,0.0301
14,AGGGCTT,0.011
15,ACACGCT,-0.00695
16,CTAAAGC,0.102
17,TCTTTAT,0.0598
18,TAAAGGC,0.0209
19,TCACGGA,0.192
20,ACGCTCA,0.134

row,Sequence,uncleaved DNA left (log2)
1,GAATACT,-2.92
2,AGTTGCT,-0.0493
3,TGACGAT,-0.0676
4,TCTGATA,-0.00718
5,GCACTAG,0.0461
6,TACCGGG,-0.0258
7,ATCCTGC,-0.174
8,ACTCTAC,-0.0742
9,AACAAGT,0.111
10,TTTATTT,-0.0739
11,GTATGCA,0.0394
12,TCCACGT,-0.0333
13,GCTTGTG,-0.18
14,CCTCTGG,0.0278
15,CATTGGG,-0.0417
16,AGCTCAC,-0.0682
17,CACAAAA,0.0815
18,ACATCAC,-0.0293
19,GCTGATG,-0.0804
20,TTCCAAG,-0.137

# System: T3, Rep nickase domain of tomato yellow leaf curl virus
# T3 sequence (residues 1-136 of Rep, tag left off): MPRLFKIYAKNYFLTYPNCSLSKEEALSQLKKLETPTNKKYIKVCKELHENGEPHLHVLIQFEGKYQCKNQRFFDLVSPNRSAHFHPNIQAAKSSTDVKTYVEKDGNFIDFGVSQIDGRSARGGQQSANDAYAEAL
# Test: as above
# Protocol: as §1
row,Sequence,uncleaved DNA left (log2)
1,GTATGAC,0.169
2,AACACGA,-0.165
3,TGAACGT,0.225
4,CGACGTT,-0.173
5,TCTACGG,-0.000631
6,CCCTGCT,-0.0892
7,GAACCCT,0.188
8,ACCGTAG,0.00765
9,ACCGGTG,0.0278
10,CATAATT,-0.224
11,CGGAGAT,-0.0174
12,ACTTCGG,-0.0102
13,GAAGGAG,-0.0167
14,AGGGCTT,-0.231
15,ACACGCT,-0.0143
16,CTAAAGC,0.106
17,TCTTTAT,0.129
18,TAAAGGC,0.0242
19,TCACGGA,-0.0117
20,ACGCTCA,-0.0757

row,Sequence,uncleaved DNA left (log2)
1,GAATACT,-0.981
2,AGTTGCT,0.0622
3,TGACGAT,-0.15
4,TCTGATA,-0.239
5,GCACTAG,-0.0839
6,TACCGGG,-0.0159
7,ATCCTGC,0.00484
8,ACTCTAC,-0.197
9,AACAAGT,0.06
10,TTTATTT,0.0111
11,GTATGCA,0.054
12,TCCACGT,0.0111
13,GCTTGTG,-0.0591
14,CCTCTGG,-0.185
15,CATTGGG,0.153
16,AGCTCAC,-0.0966
17,CACAAAA,-0.0602
18,ACATCAC,-0.242
19,GCTGATG,0.112
20,TTCCAAG,0.00514

# System: T4, Rep nickase domain of wheat dwarf virus
# T4 sequence (residues 1-137 of Rep, tag left off): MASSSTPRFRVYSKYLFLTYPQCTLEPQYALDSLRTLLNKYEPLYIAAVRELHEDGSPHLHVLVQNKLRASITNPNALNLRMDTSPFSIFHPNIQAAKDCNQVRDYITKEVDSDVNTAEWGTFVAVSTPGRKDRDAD
# Test: as above
# Protocol: as §1
row,Sequence,uncleaved DNA left (log2)
1,GTATGAC,0.133
2,AACACGA,-0.1
3,TGAACGT,0.219
4,CGACGTT,0.0522
5,TCTACGG,0.0407
6,CCCTGCT,-0.105
7,GAACCCT,0.0386
8,ACCGTAG,-0.0183
9,ACCGGTG,-0.0971
10,CATAATT,-0.244
11,CGGAGAT,-0.0402
12,ACTTCGG,-0.0842
13,GAAGGAG,0.0478
14,AGGGCTT,-0.00784
15,ACACGCT,-0.232
16,CTAAAGC,0.0663
17,TCTTTAT,-0.0786
18,TAAAGGC,0.000267
19,TCACGGA,0.002
20,ACGCTCA,-0.0483

row,Sequence,uncleaved DNA left (log2)
1,GAATACT,-2.87
2,AGTTGCT,-0.129
3,TGACGAT,0.0461
4,TCTGATA,-0.00208
5,GCACTAG,-0.0541
6,TACCGGG,0.0612
7,ATCCTGC,-0.216
8,ACTCTAC,-0.143
9,AACAAGT,0.0949
10,TTTATTT,-0.106
11,GTATGCA,-0.0319
12,TCCACGT,-0.0172
13,GCTTGTG,-0.259
14,CCTCTGG,-0.0574
15,CATTGGG,0.00364
16,AGCTCAC,0.038
17,CACAAAA,-0.00645
18,ACATCAC,-0.174
19,GCTGATG,-0.0602
20,TTCCAAG,-0.0102

# From the supplement of paper PMC7826260
